From the supplement of paper PMC12645437, “Orthogonal IMiD-Degron Pairs Induce Selective Protein Degradation in Cells” (ACS Chemical Biology, 2025)
Some of the results follow.

B1: Q9UKT9 (peptide)
chain: FECDICGAKFTQKGNLLRHIKL
B2: Q9UKT9 (peptide)
chain: LVCNQCGFDCTQKGNLLRHIKL
B3: Q9UKT9 (peptide)
chain: FICNQCGHEFTQKGNLLRHIKL
B4: Q9UKT9 (peptide)
chain: FCCEICGHYFTQKGNLLRHIKL
B5: Q9UKT9 (peptide)
chain: FMCEICGAGFTQKGNLLRHIKL
B6: Q9UKT9 (peptide)
chain: FTCEICGHSFTQKGNLLRHIKL
B7: Q9UKT9 (peptide)
chain: FTCEVCGAYFTQKGNLLRHIKL
B8: Q9UKT9 (peptide)
chain: FDCNQCGHHFTQKGNLLRHIKL
B9: Q9UKT9 (peptide)
chain: LTCNQCGFHCTQKGNLLRHIKL
B10: Q9UKT9 (peptide)
chain: FSCEICGREFTQKGNLLRHIKL
B11: Q9UKT9 (peptide)
chain: FICNQCGARFTQKGNLLRHIKL
B12: Q9UKT9 (peptide)
chain: LHCEICGFFCTQKGNLLRHIKL
B13: Q9UKT9 (peptide)
chain: LVCEICGFPCTQKGNLLRHIKL
B14: Q9UKT9 (peptide)
chain: FSCPICGAWFTQKGNLLRHIKL
B15: Q9UKT9 (peptide)
chain: FMCEVCGAIFTQKGNLLRHIKL
B16: Q9UKT9 (peptide)
chain: FLCPVCGATFTQKGNLLRHIKL
B17: Q9UKT9 (peptide)
chain: FGCNICGACFTQKGNLLRHIKL
B18: Q9UKT9 (peptide)
chain: FLCNQCGHKFTQKGNLLRHIKL
B19: Q9UKT9 (peptide)
chain: FTCPICGAAFTQKGNLLRHIKL
B20: Q9UKT9 (peptide)
chain: FDCSVCGHQFTQKGNLLRHIKL
B21: Q9UKT9 (peptide)
chain: FKCNQCGAGFTQKGNLLRHIKL
B22: Q9UKT9 (peptide)
chain: FNCPVCGAIFTQKGNLLRHIKL
B23: Q9UKT9 (peptide)
chain: FMCEICGHDFTQKGNLLRHIKL
B24: Q9UKT9 (peptide)
chain: LECEICGFFCTQKGNLLRHIKL
B25: Q9UKT9 (peptide)
chain: FCCEICGHKFTQKGNLLRHIKL
B26: Q9UKT9 (peptide)
chain: FWCEICGHFFTQKGNLLRHIKL
B27: Q9UKT9 (peptide)
chain: FFCNVCGAGFTQKGNLLRHIKL
B28: Q9UKT9 (peptide)
chain: FSCNQCGAEFTQKGNLLRHIKL
B29: Q9UKT9 (peptide)
chain: FACPVCGAVFTQKGNLLRHIKL
B30: Q9UKT9 (peptide)
chain: FDCEICGACFTQKGNLLRHIKL
B31: Q9UKT9 (peptide)
chain: FWCNQCGRKFTQKGNLLRHIKL
B32: Q9UKT9 (peptide)
chain: LACEICGFMCTQKGNLLRHIKL
B33: Q9UKT9 (peptide)
chain: FDCNQCGHWFTQKGNLLRHIKL
B34: Q9UKT9 (peptide)
chain: LWCNQCGFACTQKGNLLRHIKL
B35: Q9UKT9 (peptide)
chain: FECEVCGACFTQKGNLLRHIKL
B36: Q9UKT9 (peptide)
chain: FVCEQCGAHFTQKGNLLRHIKL
B37: Q9UKT9 (peptide)
chain: FDCDQCGATFTQKGNLLRHIKL
B38: Q9UKT9 (peptide)
chain: FNCSVCGHGFTQKGNLLRHIKL
B39: Q9UKT9 (peptide)
chain: FACNQCGADFTQKGNLLRHIKL
B40: Q9UKT9 (peptide)
chain: LQCPICGFVCTQKGNLLRHIKL
B41: Q9UKT9 (peptide)
chain: FECDQCGARFTQKGNLLRHIKL
B42: Q9UKT9 (peptide)
chain: LNCNQCGFSCTQKGNLLRHIKL
B43: Q9UKT9 (peptide)
chain: FRCPICGRHFTQKGNLLRHIKL
B44: Q9UKT9 (peptide)
chain: FRCPICGHKFTQKGNLLRHIKL
B45: Q9UKT9 (peptide)
chain: FNCNVCGASFTQKGNLLRHIKL
B46: Q9UKT9 (peptide)
chain: FVCEICGHFFTQKGNLLRHIKL
B47: Q9UKT9 (peptide)
chain: FMCNQCGHIFTQKGNLLRHIKL
B48: Q9UKT9 (peptide)
chain: FSCNQCGRHFTQKGNLLRHIKL
B49: Q9UKT9 (peptide)
chain: FDCSVCGHYFTQKGNLLRHIKL
B50: Q9UKT9 (peptide)
chain: FTCNVCGAMFTQKGNLLRHIKL

These sequences were tested against no compound (DMSO) (assay: log2 fold change of degron read counts, EGFP-low vs EGFP+ sorted cells; higher = lower degron-EGFP level without compound (poor expression or instability)). Settings: compound: DMSO control; 18 h.
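Also: jurkat cells carrying a lentiviral library of mutant zinc finger degrons fused to EGFP plus mCherry, mCherry+ cells FACS sorted, degron abundance counted by next-generation sequencing.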

Sequence	log2 fold change of degron read counts
B1	-0.882
B2	-0.964
B3	-2.15
B4	-1.19
B5	-1.04
B6	-2.51
B7	-0.506
B8	0.897
B9	0.259
B10	-1.81
B11	-0.631
B12	1.09
B13	0.307
B14	0.283
B15	0.0367
B16	-0.321
B17	0.119
B18	0.331
B19	-0.264
B20	-2.08
B21	-0.475
B22	0.14
B23	-1.77
B24	1.44
B25	-2.36

Sequence	log2 fold change of degron read counts
B26	1.12
B27	-0.489
B28	-1.62
B29	-0.172
B30	-1.82
B31	0.604
B32	0.353
B33	1.98
B34	1.97
B35	-1.98
B36	-1.6
B37	-2.04
B38	-0.23
B39	-1.4
B40	0.771
B41	-2.62
B42	0.0907
B43	0.527
B44	-0.799
B45	-0.884
B46	-0.482
B47	0.377
B48	-0.175
B49	1.12
B50	-0.643
